Assay results: ChEMBL document CHEMBL4888484, “Replenishing the malaria drug discovery pipeline: Screening and hit evaluation of the MMV Hit Generation Library 1 (HGL1) against asexual blood stage Plasmodium falciparum ,using a nano luciferase reporter read-out” (2022)
The campaign covered roughly 150,000 compounds. About 540 (0.36%) showed an effect of 50% or more. The list shows a part of the results.

Each molecule was assayed on Plasmodium falciparum (assay: Primary screen in NF54 nanoGlo assay, in single point, at 2uM, 72h; a lower Z score goes with more inhibition). Conditions: timepoint 72 hour.
Type: functional, Erythrocyte
In the case of `O=C1CCNC(=O)N1CCOc1ccc(F)cc1`, the “% Inhibition” value is reported as 4% and the Z score is reported as -0.41. In the case of `CC(C)c1noc([C@H](C)n2ccnc2-c2ccnc3ccccc23)n1`, the “% Inhibition” value is reported as -20% and the Z score is reported as 2.48. With `CC12CCC(C(=O)Nc3ccncc3)(CC1O)C2(C)C` (stereo not given) the “% Inhibition” value was -6% and the Z score was 0.77. For `O=C(NCC(F)(F)F)Nc1ccncc1`, the “% Inhibition” value was -15% and the Z score was 2.08. For `CCOC(=O)c1c(C)[nH]c(C)c1-c1csc(NCCOC)n1`, the “% Inhibition” value was 17% and the Z score was -2.69. For `Cc1c(NC(=O)COC2CCCCC2)c(=O)n(-c2ccccc2)n1C`, the “% Inhibition” value was -11% and the Z score was 1.77. In the case of `CC(C)=CCN1C(=O)[C@@H]2CC[C@H]1CN(C(=O)Cn1ccc(=O)[nH]c1=O)C2`, the “% Inhibition” value is reported as -8% and the Z score is reported as 1.51. `C[C@H]1CCCN(Cc2ccccc2CNc2cncc(-n3cccn3)n2)C1` was tested, and the “% Inhibition” value was 11% and the Z score was -1.32. `CCc1ncc(CN[C@@H](CO)c2ccccc2F)s1` was tested, and the “% Inhibition” value was -9% and the Z score was 0.83. For `CS(=O)(=O)N(CCN1CCOCC1)C1CN(S(=O)(=O)c2cccs2)C1`, the “% Inhibition” value was 0% and the Z score was -0.06. In the case of `CCn1cc(CN(C)c2ccncc2F)c(C)n1`, the “% Inhibition” value is reported as -10% and the Z score is reported as 1.03. For `Cc1ccc(-c2cc(NC(=O)C3CCN(C4CC4)CC3)[nH]n2)o1`, the “% Inhibition” value was -8% and the Z score was 0.99. In the case of `C[C@H]1COC(C)(C)CN1C(=O)c1ncn(C(C)(C)C)n1`, the “% Inhibition” value is reported as -10% and the Z score is reported as 1.34. `CCOc1cc2c(cc1CN1C[C@@H]3CC[C@H](C1)C(=O)N3)CCC2` was tested, and the “% Inhibition” value was -6% and the Z score was 0.73. For `N#Cc1ccc(N2CC(c3cccnc3)C2)nc1`, the “% Inhibition” value was -8% and the Z score was 1.18. For `Cc1c(NC(=O)N[C@@H](C)c2cc3ccccc3o2)c(=O)n(-c2ccccc2)n1C`, the “% Inhibition” value was -8% and the Z score was 1.11. `COc1ccc(C(=O)N2Cc3cccnc3C2)cn1` was tested, and the “% Inhibition” value was -15% and the Z score was 1.78. With `Cc1c(-c2cc(C3CCNCC3)c(C#N)c(N)n2)c2ccccc2n1C` the “% Inhibition” value was 4% and the Z score was -0.71. `O=S1(=O)N=C(NCc2ccc(Cn3cccn3)cc2)c2ccccc21` was tested, and the “% Inhibition” value was -1% and the Z score was 0.12. In the case of `CCN(CCc1ccccc1)Cc1nc(-c2cccnc2)no1`, the “% Inhibition” value is reported as -20% and the Z score is reported as 2.48. With `CCCNC(=O)N1C[C@@H]2Oc3ncccc3S(=O)(=O)N[C@@H]2C1` the “% Inhibition” value was -16% and the Z score was 3.18. For `Cn1ncc(CNC(=O)CC2CCC2)c1NC(=O)CC1CCC1`, the “% Inhibition” value was 32% and the Z score was -3.59. For `O=C(NCCc1cccs1)C(F)(F)F`, the “% Inhibition” value was -2% and the Z score was 0.25. With `C[C@H]1CN(CCN2CCOC2=O)CC(C)(C)O1` the “% Inhibition” value was -7% and the Z score was 1. With `O=C(O)c1nccn1CNc1ccncc1` the “% Inhibition” value was 38% and the Z score was -4.89.
